# Data from patent US20260022142A1, “MACROCYCLIC IMMUNOMODULATORS” (Bristol-Myers Squibb Company, priority 2022, published 2026).
# At least one compound was matched to its structure with a doubt left. Numbered stars: 1 amine (or outer) side, 2 acyl side, 3 side chain; on linkers, the order of the positions; unused ones are H or OH. Bridge positions count the residues as written; N and C are the ends. Square brackets hold non-standard residues; d marks the D form. Peptide text beside a SMILES is read from it. * marks the point of attachment. ξ: configuration not given here. Phe(3-CF3) = N[C@@H](Cc1cccc(C(F)(F)F)c1)C(=O)O; Phe(4-CF3) = N[C@@H](Cc1ccc(C(F)(F)F)cc1)C(=O)O; Phe(4-COOH) = N[C@@H](Cc1ccc(C(=O)O)cc1)C(=O)O; Bip = N[C@@H](Cc1ccc(-c2ccccc2)cc1)C(=O)O; Phe(3-Me) = Cc1cccc(C[C@H](N)C(=O)O)c1; γGlu = O=C(O)[C@H](CCC(=O)[*:2])N[*:1]; NH(CH2)8CO = O=C(CCCCCCCCN[*:1])[*:2]; βAsp = O=C(O)[C@H](CC(=O)[*:2])N[*:1]; NH(CH2)12COOH = O=C(O)CCCCCCCCCCCCN*; Val(3-OH) = CC(C)(O)[C@H](N)C(=O)O; X6 = O=C(Cc1ccc(CN[*:1])cc1)[*:2]; Cha = N[C@@H](CC1CCCCC1)C(=O)O; Cit = NC(=O)NCCC[C@H](N)C(=O)O; Thr(3ξ) = CC(O)[C@H](N)C(=O)O; Cba = N[C@@H](CC1CCC1)C(=O)O; Carboxymethyl = O=C(O)C*; Orn = NCCC[C@H](N)C(=O)O; Aun = NCCCCCCCCCCC(=O)O; Dab = NCC[C@H](N)C(=O)O; Dap = NC[C@H](N)C(=O)O; AEEA = NCCOCCOCC(=O)O
# Target: T1, PD-1/PD-L1 interaction (PE-labeled human PD-L1-Ig binding to Jurkat cell line over-expressing human PD-1) (Homo sapiens, UniProt Q15116)
# T1 construct: expressed in transfected cells; host or cells: Jurkat
# T1 sequence (Q15116 25-288): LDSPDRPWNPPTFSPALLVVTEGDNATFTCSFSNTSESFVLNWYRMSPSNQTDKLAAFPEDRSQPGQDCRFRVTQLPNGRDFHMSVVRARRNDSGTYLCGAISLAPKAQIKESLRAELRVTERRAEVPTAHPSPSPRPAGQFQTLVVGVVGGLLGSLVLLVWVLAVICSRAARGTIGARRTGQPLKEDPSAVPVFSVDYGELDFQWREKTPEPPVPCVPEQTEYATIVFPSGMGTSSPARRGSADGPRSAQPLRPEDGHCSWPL
# Experiment: Jurkat-PD-1 Cell Binding High-Content Screening Assay (CBA)
# Type: cell-based
# Conditions: PE-labeled PD-L1-Ig 20 nM final, read-out: Jurkat hPD1-PDL1 IC50
# Experimental: Example 2: Jurkat-PD-1 Cell Binding High-Content Screening Assay (CBA)
# Phycoerythrin (PE) was covalently linked to the Ig epitope tag of human PD-L1-Ig and fluorescently-labeled PD-L1-Ig was used for binding studies with a Jurkat cell line over-expressing human PD-1 (Jurkat-PD-1). Briefly, 8×10^3 Jurkat-hPD-1 cells were seeded into 384 well plates in 20 μl of DMEM supplemented with 10% fetal calf serum. 100 nl of compound was added to cells followed by incubation at 37° C. for 2 h. Then, 5 μl of PE-labeled PD-L1-Ig (20 nM final), diluted in DMEM supplemented with 10% fetal calf serum. After 1 hour incubation, cells were fixed with 4% paraformaldehyde in dPBS containing 10 μg/ml Hoechst 33342 and then washed 3× in 100 μl dPBS. Data was collected and processed using a Cell Insight NXT High Content Imager and associated software.
row,SMILES,IC50
1,Cc1cccc(C[C@@H]2NC(=O)[C@H](CC(=O)O)NC(=O)[C@H](Cc3ccc(OCC(=O)O)cc3)NC(=O)[C@H](Cc3ccc(C(F)(F)F)cc3)NC(=O)CSC[C@@H](C(=O)N[C@@H](CCN)C(=O)NCCCCCCCCCCC(=O)O)NC(=O)[C@H](C(C)O)NC(=O)[C@H](C(C)C)NC(=O)[C@H](CC3CCCCC3)NC(=O)[C@H](CCN)NC(=O)[C@@H](CC(C)C)NC(=O)[C@H](CCCN)NC(=O)[C@H](Cc3ccc(OCC(=O)O)cc3)NC(=O)[C@H](Cc3ccc(-c4ccccc4)cc3)NC(=O)[C@H](Cc3ccc(OCC(=O)O)cc3)NC2=O)c1 (stereo partly drawn) [Compound 3819] ({CH2CO}-[Phe(4-CF3)]Y(Carboxymethyl)D[Phe(3-Me)]Y(Carboxymethyl)[Bip]Y(Carboxymethyl)[Orn][dL][Dab][Cha]V[Thr(3ξ)]C[Dab][Aun]-OH; thioether N-14),20.4 nM
2,CC(C)C[C@@H]1NC(=O)CSC[C@@H](C(=O)N[C@@H](CCN)C(=O)NCCOCCOCC(=O)N[C@@H](CCC(=O)NCCOCCOCC(=O)NCCCCCCCCCCCCC(=O)O)C(=O)O)NC(=O)[C@H](CO)NC(=O)[C@H](C(C)(C)O)NC(=O)[C@H](CC2CCCCC2)NC(=O)[C@H](CCN)NC(=O)[C@@H](CC(C)C)NC(=O)[C@H](CCCN)NC(=O)[C@H](Cc2ccc(C(=O)O)cc2)NC(=O)[C@H](Cc2ccc(-c3ccccc3)cc2)NC(=O)[C@H](Cc2ccc(C(=O)O)cc2)NC(=O)[C@H](Cc2cccc(C(F)(F)F)c2)NC(=O)[C@H](CC(=O)O)NC(=O)[C@H](Cc2ccc(OCC(=O)O)cc2)NC1=O [Compound 2936] ({CH2CO}-LY(Carboxymethyl)D[Phe(3-CF3)][Phe(4-COOH)][Bip][Phe(4-COOH)][Orn][dL][Dab][Cha][Val(3-OH)]SC[Dab][AEEA][γGlu][AEEA]-{NH(CH2)12COOH}; thioether N-14),28.3 nM
3,CC(C)C[C@@H]1NC(=O)[C@H](CCCN)NC(=O)[C@H](C(C)C)NC(=O)[C@H](Cc2ccc(-c3ccccc3)cc2)NC(=O)[C@H](C(C)C)NC(=O)[C@H](Cc2c[nH]c3ccccc23)NC(=O)[C@H](CC(=O)O)NC(=O)[C@H](Cc2ccc(OCC(=O)O)cc2)NC(=O)[C@H](CCCNC(=N)N)NC(=O)CSC[C@@H](C(=O)NCC(=O)NCCOCCOCC(=O)N[C@@H](CCCN)C(=O)NCCCCCCCCCCC(=O)O)NC(=O)[C@H](CCCNC(N)=O)NC(=O)[C@H](C(C)C)NC(=O)[C@H](CC2CCCCC2)NC(=O)[C@H](CCN)NC1=O [Compound 3240] ({CH2CO}-RY(Carboxymethyl)DWV[Bip]V[Orn]L[Dab][Cha]V[Cit]CG[AEEA][Orn][Aun]-OH; thioether N-14),8.6 nM
4,CC(C)C[C@H]1NC(=O)[C@H](CCCN)NC(=O)[C@H](Cc2ccc(C(=O)O)cc2)NC(=O)[C@H](Cc2ccc(-c3ccccc3)cc2)NC(=O)[C@H](Cc2ccc(C(=O)O)cc2)NC(=O)[C@H](Cc2cccc(C(F)(F)F)c2)NC(=O)[C@H](CC(=O)O)NC(=O)[C@H](Cc2ccc(OCC(=O)O)cc2)NC(=O)[C@H](CCN)NC(=O)CSC[C@@H](C(=O)N[C@@H](CCN)C(=O)NCCOCCOCC(=O)N[C@@H](CCC(=O)NCCOCCOCC(=O)NCCCCCCCCCCCCC(=O)O)C(=O)O)NC(=O)[C@H](CO)NC(=O)[C@H](C(C)(C)O)NC(=O)[C@H](CC2CCCCC2)NC(=O)[C@H](CCN)NC1=O [Compound 2942] ({CH2CO}-[Dab]Y(Carboxymethyl)D[Phe(3-CF3)][Phe(4-COOH)][Bip][Phe(4-COOH)][Orn][dL][Dab][Cha][Val(3-OH)]SC[Dab][AEEA][γGlu][AEEA]-{NH(CH2)12COOH}; thioether N-14),43.7 nM
5,Cc1cccc(C[C@@H]2NC(=O)[C@H](CC(=O)O)NC(=O)[C@H](Cc3ccc(OCC(=O)O)cc3)NC(=O)[C@H](CN)NC(=O)CSC[C@@H](C(=O)N[C@@H](CCN)C(=O)NCCCCCCCCCCC(N)=O)NC(=O)[C@H](CCCCN)NC(=O)[C@H](C(C)C)NC(=O)[C@H](CC3CCCCC3)NC(=O)[C@H](CCN)NC(=O)[C@@H](CC(C)C)NC(=O)[C@H](CCCN)NC(=O)[C@H](C(C)C)NC(=O)[C@H](Cc3ccc(-c4ccccc4)cc3)NC(=O)[C@H](C(C)C)NC2=O)c1 [Compound 2024] ({CH2CO}-[Dap]Y(Carboxymethyl)D[Phe(3-Me)]V[Bip]V[Orn][dL][Dab][Cha]VKC[Dab][Aun]-NH2; thioether N-14),13 nM
6,COC[C@@H]1NC(=O)CSC[C@@H](C(=O)N[C@@H](CCN)C(=O)NCCOCCOCC(=O)N[C@@H](CC(=O)NCCOCCOCC(=O)NCCCCCCCCCCCCC(=O)O)C(=O)O)NC(=O)[C@H](CO)NC(=O)[C@H](C(C)(C)O)NC(=O)[C@H](CC2CCCCC2)NC(=O)[C@H](CCN)NC(=O)[C@@H](CC(C)C)NC(=O)[C@H](CCCN)NC(=O)[C@H](Cc2ccc(C(=O)O)cc2)NC(=O)[C@H](Cc2ccc(-c3ccccc3)cc2)NC(=O)[C@H](Cc2ccc(C(=O)O)cc2)NC(=O)[C@H](Cc2cccc(C(F)(F)F)c2)NC(=O)[C@H](CC(=O)O)NC(=O)[C@H](Cc2ccc(OCC(=O)O)cc2)NC1=O [Compound 2939] ({CH2CO}-S(Me)Y(Carboxymethyl)D[Phe(3-CF3)][Phe(4-COOH)][Bip][Phe(4-COOH)][Orn][dL][Dab][Cha][Val(3-OH)]SC[Dab][AEEA][βAsp][AEEA]-{NH(CH2)12COOH}; thioether N-14),35.2 nM
7,Cc1cccc(C[C@@H]2NC(=O)[C@H](CC(=O)O)NC(=O)[C@H](Cc3ccc(OCC(=O)O)cc3)NC(=O)[C@H](Cc3ccc(C(F)(F)F)cc3)NC(=O)CSC[C@@H](C(=O)N[C@@H](CCN)C(=O)NCCCCCCCCCCC(=O)O)NC(=O)[C@H](CCC(=O)O)NC(=O)[C@H](C(C)(C)O)NC(=O)[C@H](CC3CCCCC3)NC(=O)[C@H](CCN)NC(=O)[C@@H](CC(C)C)NC(=O)[C@H](CCCN)NC(=O)[C@H](Cc3ccc(OCC(=O)O)cc3)NC(=O)[C@H](Cc3ccc(-c4ccccc4)cc3)NC(=O)[C@H](Cc3ccc(OCC(=O)O)cc3)NC2=O)c1 [Compound 3822] ({CH2CO}-[Phe(4-CF3)]Y(Carboxymethyl)D[Phe(3-Me)]Y(Carboxymethyl)[Bip]Y(Carboxymethyl)[Orn][dL][Dab][Cha][Val(3-OH)]EC[Dab][Aun]-OH; thioether N-14),20.9 nM
8,Cc1cccc(C[C@@H]2NC(=O)[C@H](CC(=O)O)NC(=O)[C@H](Cc3ccc(OCC(=O)O)cc3)NC(=O)[C@H](Cc3ccc(C(F)(F)F)cc3)NC(=O)CSC[C@@H](C(=O)N[C@@H](CCN)C(=O)NCCCCCCCCCCCCC(=O)O)NC(=O)[C@H](CCC(=O)O)NC(=O)[C@H](C(C)(C)O)NC(=O)[C@H](CC3CCCCC3)NC(=O)[C@H](CCN)NC(=O)[C@@H](CC(C)C)NC(=O)[C@H](CCCN)NC(=O)[C@H](Cc3ccc(OCC(=O)O)cc3)NC(=O)[C@H](Cc3ccc(-c4ccccc4)cc3)NC(=O)[C@H](Cc3ccc(OCC(=O)O)cc3)NC2=O)c1 [Compound 3823] ({CH2CO}-[Phe(4-CF3)]Y(Carboxymethyl)D[Phe(3-Me)]Y(Carboxymethyl)[Bip]Y(Carboxymethyl)[Orn][dL][Dab][Cha][Val(3-OH)]EC[Dab]-{NH(CH2)12COOH}; thioether N-14),40.4 nM
9,Cc1cccc(C[C@@H]2NC(=O)[C@H](CC(=O)O)NC(=O)[C@H](Cc3ccc(OCC(=O)O)cc3)NC(=O)[C@H](CCCNC(=N)N)NC(=O)CSC[C@@H](C(=O)N[C@@H](CCN)C(=O)NCCCCCCCCCCC(=O)O)NC(=O)[C@H]([C@@H](C)O)NC(=O)[C@H](C(C)C)NC(=O)[C@H](CC3CCC3)NC(=O)[C@H](CCN)NC(=O)[C@@H](CC(C)C)NC(=O)[C@H](CCCN)NC(=O)[C@H](Cc3ccc(OCC(=O)O)cc3)NC(=O)[C@H](Cc3ccc(-c4ccccc4)cc3)NC(=O)[C@H](Cc3ccc(OCC(=O)O)cc3)NC2=O)c1 [Compound 2170] ({CH2CO}-RY(Carboxymethyl)D[Phe(3-Me)]Y(Carboxymethyl)[Bip]Y(Carboxymethyl)[Orn][dL][Dab][Cba]VTC[Dab][Aun]-OH; thioether N-14),7.9 nM
10,Cc1cccc(C[C@@H]2NC(=O)[C@H](CC(=O)O)NC(=O)[C@H](Cc3ccc(OCC(=O)O)cc3)NC(=O)[C@H](Cc3ccc(OCC(=O)O)cc3)NC(=O)CSC[C@@H](C(=O)N[C@@H](CN)C(=O)NCCCCCCCCCCC(=O)O)NC(=O)[C@H](CO)NC(=O)[C@H](C(C)C)NC(=O)[C@H](CC(C)C)NC(=O)[C@H](CCN)NC(=O)[C@@H](CC(C)C)NC(=O)[C@H](CCCN)NC(=O)[C@H](C(C)C)NC(=O)[C@H](Cc3ccc(-c4ccccc4)cc3)NC(=O)[C@@H](CC(C)C)NC2=O)c1 [Compound 1140] ({CH2CO}-Y(Carboxymethyl)Y(Carboxymethyl)D[Phe(3-Me)][dL][Bip]V[Orn][dL][Dab]LVSC[Dap][Aun]-OH; thioether N-14),31.5 nM
11,CC[C@H](C)[C@@H]1NC(=O)[C@H](Cc2ccc(-c3ccccc3)cc2)NC(=O)[C@H](C(C)C)NC(=O)[C@H](Cc2c[nH]c3ccccc23)NC(=O)[C@H](CC(=O)O)NC(=O)[C@H](Cc2ccc(OCC(=O)O)cc2)NC(=O)[C@H](CN)NC(=O)CSC[C@@H](C(=O)N[C@@H](CCCN)C(=O)NCCOCCOCC(=O)NCc2ccc(CC(=O)NCCCCCCCCC(=O)O)cc2)NC(=O)[C@H](C(C)O)NC(=O)[C@H](C(C)C)NC(=O)[C@H](CC(C)C)NC(=O)[C@H](CCN)NC(=O)[C@@H](CC(C)C)NC(=O)[C@H](CCCN)NC1=O (stereo partly drawn) [Compound 2013] ({CH2CO}-[Dap]Y(Carboxymethyl)DWV[Bip]I[Orn][dL][Dab]LV[Thr(3ξ)]C[Orn][AEEA][X6]-{NH(CH2)8CO}; thioether N-14),24.5 nM
